The text below walks through data of the supplement of paper PMC12217912.

B1: TEV protease; numbered along this chain (parent)
chain: MGESLFKGPRDYNPISSSICHLTNESDGHTTSLYGIGFGPFIITNKHLFRRNNGTLVVQSLHGVFKVKDTTTLQQHLVDGRDMIIIRMPKDFPPFPQKLKFREPQREERICLVTTNFQTKSMSSMVSDTSCTFPSGDGIFWKHWIQTKDGQCGSPLVSTRDGFIVGIHSASNFTNTNNYFTSVPKNFMELLTNQEAQQWVSGWRLNADSVLWGGHKVFMVKPEEPFQPVKEATQL

The list shows a part of the results. The full chains were built here from the parent and the listed change. Values near 0.05 are background.

This assay covers variants of B1. Description: raw area under fraction-flipped curve 0-4 h after induction (AUC4h, not background-subtracted), DNA-recorder readout of cleavage of the substrate (dimensionless); higher = more cleavage of the substrate by the protease variant. The note with it: temperature: 34 °C; time window: 0-4 h after rhamnose induction. The protocol: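 In vivo DNA recorder in E. coli TOP10(DE3) ΔrhaA at 34 °C. Each TEVp single-site mutant (parent TEVp 0) is paired with a single-site variant of the 7-mer TEVs (canonical ENLYFQ|S). The substrate sits between flexible linkers in a Bxb1-sfGFP-TEVs-SsrA fusion, so cleavage stabilises Bxb1 and speeds flipping of a recombination array, read by NGS. The value is the raw area under the fraction-flipped curve over 0-4 h after rhamnose induction (AUC4h), with ≥20 reads per time point. It is not background-subtracted; inactive controls average about 0.047.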
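Further: Bxb1 expression induced with 0.2% (w/v) L-rhamnose at OD600 near 0.5, cultures sampled hourly, flipped fraction per protease–substrate barcode pair counted by paired-end Illumina sequencing.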

On to MGESLFKGPRDYNPISESICHLTNESDGHTTSLYGIGFGPFIITNKHLFRRNNGTLVVQSLHGVFKVKDTTTLQQHLVDGRDMIIIRMPKDFPPFPQKLKFREPQREERICLVTTNFQTKSMSSMVSDTSCTFPSGDGIFWKHWIQTKDGQCGSPLVSTRDGFIVGIHSASNFTNTNNYFTSVPKNFMELLTNQEAQQWVSGWRLNADSVLWGGHKVFMVKPEEPFQPVKEATQL [S17E], for which the “area with substrate ENLYAQS” value came to 0.0696, the “area with substrate ENLYCQS” value was 0.0952, the “area with substrate ENLYDQS” value came out at 0.0635 and the “area with substrate ENLYEQS” value was found to be 0.0642. In addition, the “area with substrate ENLYGQS” value was determined as 0.0545, the “area with substrate ENLYHQS” value stood at 0.0667, the “area with substrate ENLYIQS” value came to 0.159 and the “area with substrate ENLYKQS” value was found to be 0.0472. Further, the “area with substrate ENLYLQS” value came to 0.0891, the “area with substrate ENLYMQS” value stood at 0.0929, the “area with substrate ENLYNQS” value is 0.0588 and the “area with substrate ENLYPQS” value was 0.0753. Moreover, the “area with substrate ENLYQQS” value came out at 0.067, the “area with substrate ENLYRQS” value came out at 0.0352, the “area with substrate ENLYSQS” value is 0.0753 and the “area with substrate ENLYTQS” value was found to be 0.0837. In addition, the “area with substrate ENLYVQS” value came to 0.119, the “area with substrate ENLYWQS” value came out at 0.0892 and the “area with substrate ENLYYQS” value turned out to be 0.0657.
On to MGESLFKGPRDYNPISSSICHLTNESDGHTTSLYGIGFGPFIITNKHLFRRNNGTLVVQSLHGVFKVKDTTTLQQHLVDGRDMIIIRMPKDFPPFPQKLKFREPQREERICLVTTNFQTKSMSSMVSDTSCTFPSGDGIFWKHWIQTKDGQCGSPLVSTRDGFIVGIHSASNFTNTNNYPTSVPKNFMELLTNQEAQQWVSGWRLNADSVLWGGHKVFMVKPEEPFQPVKEATQL [F180P], for which the “area with substrate ENLYAQS” value is 0.0846, the “area with substrate ENLYCQS” value is 0.0559, the “area with substrate ENLYEQS” value came out at 0.059 and the “area with substrate ENLYGQS” value was determined as 0.0519. Moreover, the “area with substrate ENLYHQS” value amounted to 0.0368, the “area with substrate ENLYIQS” value was found to be 0.0464, the “area with substrate ENLYKQS” value stood at 0.0278 and the “area with substrate ENLYMQS” value stood at 0.0475. In addition, the “area with substrate ENLYNQS” value was 0.0586, the “area with substrate ENLYPQS” value is 0.0428, the “area with substrate ENLYRQS” value worked out at 0.0637 and the “area with substrate ENLYWQS” value was 0.061. For the same variant, the “area with substrate ENLYYQS” value came out at 0.0466.
Consider MGESLFKGPRDYNPISSSICHLTNESDGHTTSLYGIGFGPFIITNKHLFRRNNGTLVVQSLHGVFKVKDTTTLQQHLVDGRDMIIIRMPKDFPPFPQKLKFREPQREERICLVTTNFQTKSMSSMVHDTSCTFPSGDGIFWKHWIQTKDGQCGSPLVSTRDGFIVGIHSASNFTNTNNYFTSVPKNFMELLTNQEAQQWVSGWRLNADSVLWGGHKVFMVKPEEPFQPVKEATQL [S127H], for which the “area with substrate ENLYAQS” value worked out at 0.0697, the “area with substrate ENLYCQS” value came out at 0.0543, the “area with substrate ENLYDQS” value is 0.0651 and the “area with substrate ENLYEQS” value came out at 0.0667. Moreover, the “area with substrate ENLYGQS” value turned out to be 0.0555, the “area with substrate ENLYHQS” value is 0.0871, the “area with substrate ENLYIQS” value came out at 0.138 and the “area with substrate ENLYKQS” value is 0.0275. Moreover, the “area with substrate ENLYLQS” value was found to be 0.0842, the “area with substrate ENLYNQS” value worked out at 0.0679, the “area with substrate ENLYPQS” value stood at 0.0689 and the “area with substrate ENLYQQS” value stood at 0.0776. In addition, the “area with substrate ENLYRQS” value came out at 0.0764, the “area with substrate ENLYSQS” value was 0.079, the “area with substrate ENLYWQS” value stood at 0.105 and the “area with substrate ENLYYQS” value was found to be 0.071.
On to MGESLFKGPRDYNPIWSSICHLTNESDGHTTSLYGIGFGPFIITNKHLFRRNNGTLVVQSLHGVFKVKDTTTLQQHLVDGRDMIIIRMPKDFPPFPQKLKFREPQREERICLVTTNFQTKSMSSMVSDTSCTFPSGDGIFWKHWIQTKDGQCGSPLVSTRDGFIVGIHSASNFTNTNNYFTSVPKNFMELLTNQEAQQWVSGWRLNADSVLWGGHKVFMVKPEEPFQPVKEATQL [S16W], for which the “area with substrate ENLYAQS” value was found to be 0.0764, the “area with substrate ENLYDQS” value came to 0.0564, the “area with substrate ENLYEQS” value was 0.0683 and the “area with substrate ENLYGQS” value stood at 0.0632. Besides, the “area with substrate ENLYHQS” value came to 0.0632, the “area with substrate ENLYIQS” value worked out at 0.0873, the “area with substrate ENLYKQS” value was found to be 0.108 and the “area with substrate ENLYMQS” value stood at 0.0928. Further, the “area with substrate ENLYNQS” value turned out to be 0.0672, the “area with substrate ENLYPQS” value came to 0.071, the “area with substrate ENLYQQS” value was determined as 0.081 and the “area with substrate ENLYRQS” value is 0.0605. For the same variant, the “area with substrate ENLYSQS” value amounted to 0.0744 and the “area with substrate ENLYTQS” value was 0.0872.
For the variant MGESLFKGPRDYNPISSSICHLTNESDGHTTSLYGIGFGPFIITNKHLFRRNNGTLVVQSLHGVFKVKDTTTLQQHLVDGRDMIIIRMPKDFPPFPQKLKFREPQREERICLVTTNFQTKVMSSMVSDTSCTFPSGDGIFWKHWIQTKDGQCGSPLVSTRDGFIVGIHSASNFTNTNNYFTSVPKNFMELLTNQEAQQWVSGWRLNADSVLWGGHKVFMVKPEEPFQPVKEATQL [S121V], the “area with substrate ENLYAQS” value came out at 0.08, the “area with substrate ENLYDQS” value came out at 0.0617, the “area with substrate ENLYEQS” value stood at 0.0671 and the “area with substrate ENLYGQS” value came to 0.0534. Besides, the “area with substrate ENLYHQS” value was found to be 0.0761, the “area with substrate ENLYIQS” value was found to be 0.125, the “area with substrate ENLYKQS” value is 0.0734 and the “area with substrate ENLYLQS” value was found to be 0.084. Besides, the “area with substrate ENLYMQS” value amounted to 0.0608, the “area with substrate ENLYNQS” value came out at 0.0646, the “area with substrate ENLYPQS” value came out at 0.0576 and the “area with substrate ENLYQQS” value is 0.0662. Also, the “area with substrate ENLYTQS” value came out at 0.0808, the “area with substrate ENLYVQS” value was 0.0748, the “area with substrate ENLYWQS” value is 0.0859 and the “area with substrate ENLYYQS” value is 0.0427.
As for MGESLFKGPRDYNPISSSECHLTNESDGHTTSLYGIGFGPFIITNKHLFRRNNGTLVVQSLHGVFKVKDTTTLQQHLVDGRDMIIIRMPKDFPPFPQKLKFREPQREERICLVTTNFQTKSMSSMVSDTSCTFPSGDGIFWKHWIQTKDGQCGSPLVSTRDGFIVGIHSASNFTNTNNYFTSVPKNFMELLTNQEAQQWVSGWRLNADSVLWGGHKVFMVKPEEPFQPVKEATQL [I19E], the “area with substrate ENLYAQS” value is 0.0361, the “area with substrate ENLYDQS” value was determined as 0.0421, the “area with substrate ENLYEQS” value amounted to 0.0439 and the “area with substrate ENLYGQS” value stood at 0.0515. The “area with substrate ENLYHQS” value was determined as 0.0404, the “area with substrate ENLYKQS” value came to 0.051, the “area with substrate ENLYLQS” value came to 0.0531 and the “area with substrate ENLYMQS” value was 0.0521. Also, the “area with substrate ENLYNQS” value stood at 0.0489, the “area with substrate ENLYPQS” value was found to be 0.0587, the “area with substrate ENLYQQS” value was 0.047 and the “area with substrate ENLYWQS” value was determined as 0.0472.
For MGESLFKGPRDYNPISSSICHLTNESDRHTTSLYGIGFGPFIITNKHLFRRNNGTLVVQSLHGVFKVKDTTTLQQHLVDGRDMIIIRMPKDFPPFPQKLKFREPQREERICLVTTNFQTKSMSSMVSDTSCTFPSGDGIFWKHWIQTKDGQCGSPLVSTRDGFIVGIHSASNFTNTNNYFTSVPKNFMELLTNQEAQQWVSGWRLNADSVLWGGHKVFMVKPEEPFQPVKEATQL [G28R], the “area with substrate ENLYAQS” value was determined as 0.062, the “area with substrate ENLYDQS” value amounted to 0.0667, the “area with substrate ENLYEQS” value turned out to be 0.0662 and the “area with substrate ENLYGQS” value is 0.0577. Further, the “area with substrate ENLYHQS” value worked out at 0.0635, the “area with substrate ENLYIQS” value worked out at 0.115, the “area with substrate ENLYKQS” value worked out at 0.0557 and the “area with substrate ENLYMQS” value turned out to be 0.0739. Further, the “area with substrate ENLYNQS” value came to 0.0383, the “area with substrate ENLYPQS” value came out at 0.0549, the “area with substrate ENLYRQS” value came to 0.0582 and the “area with substrate ENLYVQS” value is 0.133. Also, the “area with substrate ENLYWQS” value came out at 0.0717.
On to MGESLFKGPRDYNPISSSICHLTNESDGHTTSLYGIGFGPFIITNKHLFRRNNGTLVVQSLHGVFKVKDWTTLQQHLVDGRDMIIIRMPKDFPPFPQKLKFREPQREERICLVTTNFQTKSMSSMVSDTSCTFPSGDGIFWKHWIQTKDGQCGSPLVSTRDGFIVGIHSASNFTNTNNYFTSVPKNFMELLTNQEAQQWVSGWRLNADSVLWGGHKVFMVKPEEPFQPVKEATQL [T70W], for which the “area with substrate ENLYAQS” value is 0.0648, the “area with substrate ENLYCQS” value came to 0.062, the “area with substrate ENLYDQS” value stood at 0.0628 and the “area with substrate ENLYEQS” value came out at 0.0618. Moreover, the “area with substrate ENLYGQS” value worked out at 0.0655, the “area with substrate ENLYHQS” value stood at 0.0632, the “area with substrate ENLYIQS” value was found to be 0.0727 and the “area with substrate ENLYKQS” value was 0.0794. Further, the “area with substrate ENLYLQS” value was determined as 0.062, the “area with substrate ENLYMQS” value came to 0.0654, the “area with substrate ENLYNQS” value is 0.0569 and the “area with substrate ENLYPQS” value was found to be 0.0766. Further, the “area with substrate ENLYQQS” value stood at 0.0618, the “area with substrate ENLYRQS” value was determined as 0.0629, the “area with substrate ENLYVQS” value turned out to be 0.0696 and the “area with substrate ENLYWQS” value was 0.0607. Also, the “area with substrate ENLYYQS” value is 0.0594.
On to MGESLFKGPRDYNPISSSICHLTNESDGHTTSLYGIGFGPFIITNKHLFRRNNGTLVVQSLHGVFKVKDTTTLQQHLVDGRDMIIIRMPKDFPPFPQKLKFREPQREERICLVTTNFQTKSMSSMVSDTSCTFPSGDGIFWKHWIQTKDGQCGSYLVSTRDGFIVGIHSASNFTNTNNYFTSVPKNFMELLTNQEAQQWVSGWRLNADSVLWGGHKVFMVKPEEPFQPVKEATQL [P155Y], for which the “area with substrate ENLYAQS” value is 0.0681, the “area with substrate ENLYCQS” value came to 0.0541, the “area with substrate ENLYDQS” value is 0.0488 and the “area with substrate ENLYEQS” value came out at 0.0402. Also, the “area with substrate ENLYGQS” value came to 0.0428, the “area with substrate ENLYHQS” value turned out to be 0.0552, the “area with substrate ENLYIQS” value came out at 0.0638 and the “area with substrate ENLYKQS” value was determined as 0.0597. In addition, the “area with substrate ENLYPQS” value is 0.0763, the “area with substrate ENLYQQS” value was found to be 0.0637, the “area with substrate ENLYSQS” value worked out at 0.0596 and the “area with substrate ENLYVQS” value amounted to 0.0607. In addition, the “area with substrate ENLYYQS” value was found to be 0.049.
